Reference: PubChem BioAssay AID651568 (National Center for Advancing Translational Sciences (NCATS), 2012)
Among all 1,200 compounds or so, about 55 (5%) were called active. Roughly 15% stayed inconclusive and do not appear here. Calls come from the whole dose curve; as a rule, active = well fitted inhibition curve with a large enough effect; inconclusive = small, poorly fitted or top-dose-only effect; inactive = no such curve, though single readings can be large or run the other way. Some of the results follow.

assay: qHTS Assay to Find Inhibitors of Chronic Active B-Cell Receptor Signaling: Hit Validation in Renilla Reporter Assay; details: TMD8 IkB-Renilla luciferase reporter, NF-kB signaling; series mostly up to 57.5 µM; activity change, negative = inhibition: at the top concentration; note: nearly all actives have a fitted effect of over 70% in size
Outline: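 Orthogonal secondary test of primary-screen hits in ABC-DLBCL cells carrying constitutively expressed IkB-Photinus and Renilla luciferase reporters, read by Dual-Glo luminescence; luciferases differ from the primary assay's click beetle enzymes, to exclude assay-specific artifacts.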
% is set by controls: 0 for no effect and ±100 for the full control effect; potency is the fitted concentration of half-maximal effect.

| Structure (SMILES) | activity change, negative = inhibition | Potency |
| --- | --- | --- |
| CCOc1ccc(S(=O)(=O)NCc2ccccn2)cc1NC(=O)c1ccccc1F | inactive: 5.11% |  |
| COc1ccc(-c2c3c(=O)n(C)c(=O)n(C)c3cn2N2CCOCC2)cc1 | inactive: -20.9% |  |
| Cc1cc(C)c2cc(C=O)c(Cl)nc2c1 | inactive: 3.92% |  |
| CCn1c2ccccc2c2cc(NC(=O)c3cc(OC)cc(OC)c3)ccc21 | inactive: 2.33% |  |
| c1ccc(C2=Nn3c(nnc3-c3n[nH]c4c3CCC4)SC2)cc1 | inactive: -11.8% |  |
| COc1cc2c(cc1OC)-c1cc(Nc3ccccc3C)nc(=O)n1CC2 | inactive: -2.82% |  |
| COc1ccc(C(=O)c2ccc(OC)c(N)c2)cc1N | inactive: 2.59% |  |
| CCOC(=O)C(C)N1C(=O)S/C(=C/c2cc(C)n(-c3ccccn3)c2C)C1=O (configuration not stated) | inactive: -1.07% |  |
| Cc1ccccc1Nc1c(N)c(=O)oc2ccccc12 | inactive: 5.23% |  |
| Cc1ccccc1N1CCN(C2=NC(=O)/C(=C\c3cccs3)S2)CC1 | inactive: -10.4% |  |
| CC1=NN(C(N)=S)C(=O)C1N=Nc1ccc(F)cc1 (configuration not stated) | inactive: -18.2% |  |
| COc1ccc(C2=NN(C(C)=O)C(c3cccs3)C2)cc1OC (configuration not stated) | inactive: 3.79% |  |
| CCC1=Nc2cc(C(=O)NCc3ccccc3Cl)ccc2Sc2ccc(C)cc21 | inactive: 8.29% |  |
| COc1cc(SSc2cc(OC)cc([N+](=O)[O-])c2N)c(N)c([N+](=O)[O-])c1 | inactive: 0.788% |  |
| CCNC(=S)NNc1ccccc1 | inactive: 2.7% |  |
| CCOc1ccccc1CNS(=O)(=O)c1ccc(-c2cnc(C3CC3)o2)cc1 | inactive: -4.15% |  |
| Cc1ccc(/C=N/NC(=O)c2cc(-c3cccnc3)nc3ccccc23)cc1 | inactive: -4.67% |  |
| Cc1c(/C=N\NC(=O)C2COc3ccccc3O2)c2ccccc2n1C (configuration not stated) | inactive: -13.8% |  |
| CC1C(=O)N2CCCc3cc(NC(=O)c4ccccc4Br)cc1c32 (configuration not stated) | inactive: 9.75% |  |
| Oc1ccc(CNc2ccccc2F)c2cccnc12 | inactive: 9.53% |  |
| COC(=O)c1ccccc1NC(=O)Cn1c(-c2nonc2N)nc2ccccc21 | inactive: -21.5% |  |
| COc1cc2c(cc1C1NC(=S)NC(C)=C1C(N)=O)CCCC2 (configuration not stated) | inactive: 2.66% |  |
| NC(=S)NN=C1c2ccccc2-c2ccccc21 | inactive: -21.7% |  |
| COc1cccc(N2CCN(C(=O)c3ccc(CS(=O)c4ccc(C)cc4)o3)CC2)c1 (configuration not stated) | inactive: -5.33% |  |
| OC[C@H]1O[C@@H](n2cnc3c(NC4CCCC4)nc(Cl)nc32)[C@H](O)[C@@H]1O | inactive: -17.7% |  |
| COc1cc2c(cc1OC)-c1cc(Nc3ccc(C)cc3)nc(=O)n1CC2 | inactive: -18.8% |  |

| Structure (SMILES) | activity change, negative = inhibition | Potency |
| --- | --- | --- |
| CCSc1nc(-c2ccccc2)nc(C(Cl)Cl)n1 |  | active: 2.69 µM |
| CCCn1nnc(NC(=S)NC(=O)Cc2ccccc2)n1 | inactive: 6.62% |  |
| COc1cc(C2=NOC(C(=O)NCc3ccco3)C2)cc(OC)c1OC (configuration not stated) | inactive: -1.17% |  |
| COc1cc(-c2noc(C)c2/C=C/c2ccc(OC(C)=O)cc2)cc(OC)c1OC | inactive: -22.1% |  |
| C/C(=N\NC(=O)COc1ccc(C(C)(C)C)cc1)c1ccc(N2CCOCC2)cc1 | inactive: -17.7% |  |
| O=C(NC(=S)NC1CCSC1=O)c1ccccc1 (configuration not stated) | inactive: 3.18% |  |
| COc1cc(OC)c2c(-c3cccc(-c4sccc4C(C)=O)c3)cc(=O)oc2c1 | inactive: -25.5% |  |
| COc1cc2c(c(OC)c1OC)-c1ccc(N(C)CC(OC)OC)c(=O)cc1[C@@H](NC(C)=O)CC2 | inactive: -11.3% |  |
| NS(=O)(=O)c1cc(C(=O)OCC(=O)N2CCc3ccccc3C2)ccc1Cl | inactive: 7.65% |  |
| CC1CC(C)CN(S(=O)(=O)c2ccc(NC(=O)c3ccc(=O)[nH]c3)cc2)C1 (configuration not stated) | inactive: 14.9% |  |
| Cc1cc(C)c(S(=O)(=O)Nc2ccc3c4c(cccc24)CC3)c(C)c1 | inactive: 12.3% |  |
| CCOC(=O)C1(C)C(C(=O)OC)=C(c2ccc(OC)cc2)c2ccccc2N1C(=O)OC (configuration not stated) | inactive: 0.713% |  |
| CC(=NNC(=O)c1cc(C)nc2ccccc12)c1ccc(N2CCOCC2)cc1 | inactive: -10.2% |  |
| O=Cc1ccc(O)c2ncccc12 | inactive: -26.5% |  |
| COc1ccc(/C=N/NC(=O)c2ccc3c(c2)NC(=O)C(C)(C)O3)cc1OC | inactive: -5.68% |  |
| COc1ccc(S(=O)(=O)N2CCCCC2)cc1NS(=O)(=O)c1cc(Cl)ccc1Cl | inactive: 32.2% |  |
| COc1cc(/C=N/NC(=O)C2C3CCCCC32C)cc(Br)c1O (configuration not stated) | inactive: -19.2% |  |
| COc1ccc(NC(=O)/C(C#N)=C\c2cc(C)n(-c3ccc4c(c3)OCO4)c2C)cc1 | inactive: -9.92% |  |
| O=C(c1ccc(Cl)cc1)c1cc([N+](=O)[O-])ccc1N1CCOCC1 | inactive: -5.48% |  |
| CC(/C=N/NC(=O)c1cc(-c2ccccc2)nc2ccccc12)=C\c1ccco1 | inactive: -1.8% |  |
| C=CCn1c(SCc2c(C)noc2C)nc2ccccc2c1=O | inactive: -0.584% |  |
| CCCC(=O)Nc1ccc(C(=O)N/N=C/c2cccnc2)cc1 | inactive: -9.34% |  |
| Cc1ccnc(NC(=O)c2cccc(S(=O)(=O)Nc3ccc(C)cc3C)c2)c1 | inactive: 26.3% |  |
| CCNC(=S)N/N=C(\C)c1ccc(Cl)s1 | inactive: 4.96% |  |
| Cc1nnc2ccc(-c3ccc(NS(=O)(=O)c4ccccc4[N+](=O)[O-])cc3)nn12 | inactive: 8.84% |  |
| COc1ccc2cc(C3c4cc(OC)c(OC)cc4CCN3C(=O)c3ccco3)c(=O)[nH]c2c1 (configuration not stated) | inactive: 0.254% |  |
